From the supplement of paper PMC10369915
The list shows a part of the results. Rule as the data show it: active = 3.2 or more and inactive = the rest. Only a few entries rise above the background.

Target: SHP2 C-SH2 domain E139D
Assay: enrichment score (SH2-bound / input frequency) (ratio); bacterial display of known human phosphotyrosine sites (pTyr-Var adds point mutants) read by sequencing; higher = stronger binding; tyrosines were phosphorylated by kinases first
Settings: peptide library: pTyr-Var
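Also: displayed peptides selected on beads carrying the immobilized SH2 domain, with library peptides lacking any tyrosine serving as negative controls.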

Enrichment score, inactive:
HSDYQYSQRSQ [PKP2_Y168] 0.486, HSDYQYGQRSQ [PKP2_Y168_S169G] 0.568, HSDFQYGQRSQ [PKP2_Y168_S169G_YF] 0.685, HSDFQYSQRSQ [PKP2_Y168_YF] 0.764, LVPPRYARSEI [PKP2_Y194] 0.69, LVPPRYVRSEI [PKP2_Y194_A195V] 0.766, ELPEKYSQNIC [PKP2_Y626_Y631C] 0.608, CNLDTYQKRLR [PLA2G2D_Y126_R121C] 0.582, QGCGIYKDYYR [PLA2G2D_Y82_S80G] 1.19, QGCSIYKDFFR [PLA2G2D_Y82_YF] 1.27, YMRGMYFRMTD [PLA2G6_Y541_K545T] 2.3, FMRGMYFRMTD [PLA2G6_Y541_K545T_YF] 1.03, NGRQCYSCRGN [PLAUR_Y217_K220R] 1.69, DKGTLYIVEQI [PLBD1_Y375] 0.765, DKGTLYIAEQI [PLBD1_Y375_V377A] 0.747, SLIERYEPSET [PLCD1_Y258] 0.542, SLIEHYEPSET [PLCD1_Y258_R257H] 0.718, SGDITYGQFAQ [PLCG1_Y210] 0.843

Target: SHP2 C-SH2 domain wild-type
Assay: as above
Settings: peptide library: pTyr-Var

Enrichment score, inactive:
HSDYQYSQRSQ [PKP2_Y168] 0.669, HSDYQYGQRSQ [PKP2_Y168_S169G] 0.484, HSDFQYGQRSQ [PKP2_Y168_S169G_YF] 0.57, HSDFQYSQRSQ [PKP2_Y168_YF] 0.847, LVPPRYARSEI [PKP2_Y194] 0.775, LVPPRYVRSEI [PKP2_Y194_A195V] 0.735, ELPEKYSQNIC [PKP2_Y626_Y631C] 0.741, CNLDTYQKRLR [PLA2G2D_Y126_R121C] 0.625, QGCGIYKDYYR [PLA2G2D_Y82_S80G] 1.27, QGCSIYKDFFR [PLA2G2D_Y82_YF] 0.989, YMRGMYFRMTD [PLA2G6_Y541_K545T] 2.82, FMRGMYFRMTD [PLA2G6_Y541_K545T_YF] 1.28, NGRQCYSCRGN [PLAUR_Y217_K220R] 1.78, DKGTLYIVEQI [PLBD1_Y375] 0.998, DKGTLYIAEQI [PLBD1_Y375_V377A] 0.821, SLIERYEPSET [PLCD1_Y258] 0.539, SLIEHYEPSET [PLCD1_Y258_R257H] 0.48, SGDITYGQFAQ [PLCG1_Y210] 0.759

Target: SHP2 N-SH2 domain L43F
Assay: as above
Settings: peptide library: pTyr-Var

Enrichment score, inactive:
HSDYQYSQRSQ [PKP2_Y168] 0.555, HSDYQYGQRSQ [PKP2_Y168_S169G] 0.535, HSDFQYGQRSQ [PKP2_Y168_S169G_YF] 0.473, HSDFQYSQRSQ [PKP2_Y168_YF] 0.647, LVPPRYARSEI [PKP2_Y194] 0.834, LVPPRYVRSEI [PKP2_Y194_A195V] 0.454, ELPEKYSQNIC [PKP2_Y626_Y631C] 0.6, CNLDTYQKRLR [PLA2G2D_Y126_R121C] 0.469, QGCGIYKDYYR [PLA2G2D_Y82_S80G] 1.14, QGCSIYKDFFR [PLA2G2D_Y82_YF] 1.25, YMRGMYFRMTD [PLA2G6_Y541_K545T] 2.17, FMRGMYFRMTD [PLA2G6_Y541_K545T_YF] 0.856, NGRQCYSCRGN [PLAUR_Y217_K220R] 1.64, DKGTLYIVEQI [PLBD1_Y375] 0.629, DKGTLYIAEQI [PLBD1_Y375_V377A] 0.856, SLIERYEPSET [PLCD1_Y258] 0.611, SLIEHYEPSET [PLCD1_Y258_R257H] 0.617, SGDITYGQFAQ [PLCG1_Y210] 0.765

Target: SHP2 N-SH2 domain T42A
Assay: as above
Settings: peptide library: pTyr-Var

Enrichment score, inactive:
HSDYQYSQRSQ [PKP2_Y168] 0.537, HSDYQYGQRSQ [PKP2_Y168_S169G] 0.562, HSDFQYGQRSQ [PKP2_Y168_S169G_YF] 0.548, HSDFQYSQRSQ [PKP2_Y168_YF] 0.587, LVPPRYARSEI [PKP2_Y194] 0.629, LVPPRYVRSEI [PKP2_Y194_A195V] 0.54, ELPEKYSQNIC [PKP2_Y626_Y631C] 0.673, CNLDTYQKRLR [PLA2G2D_Y126_R121C] 0.536, QGCGIYKDYYR [PLA2G2D_Y82_S80G] 1.2, QGCSIYKDFFR [PLA2G2D_Y82_YF] 1.26, YMRGMYFRMTD [PLA2G6_Y541_K545T] 1.92, FMRGMYFRMTD [PLA2G6_Y541_K545T_YF] 1.02, NGRQCYSCRGN [PLAUR_Y217_K220R] 1.6, DKGTLYIVEQI [PLBD1_Y375] 0.744, DKGTLYIAEQI [PLBD1_Y375_V377A] 0.684, SLIERYEPSET [PLCD1_Y258] 0.527, SLIEHYEPSET [PLCD1_Y258_R257H] 0.571, SGDITYGQFAQ [PLCG1_Y210] 0.585

Target: SHP2 N-SH2 domain T52S
Assay: as above
Settings: peptide library: pTyr-Var

Enrichment score, inactive:
HSDYQYSQRSQ [PKP2_Y168] 0.739, HSDYQYGQRSQ [PKP2_Y168_S169G] 0.509, HSDFQYGQRSQ [PKP2_Y168_S169G_YF] 0.636, HSDFQYSQRSQ [PKP2_Y168_YF] 0.951, LVPPRYARSEI [PKP2_Y194] 0.676, LVPPRYVRSEI [PKP2_Y194_A195V] 0.498, ELPEKYSQNIC [PKP2_Y626_Y631C] 0.601, CNLDTYQKRLR [PLA2G2D_Y126_R121C] 0.67, QGCGIYKDYYR [PLA2G2D_Y82_S80G] 1.05, QGCSIYKDFFR [PLA2G2D_Y82_YF] 1.23, YMRGMYFRMTD [PLA2G6_Y541_K545T] 2.26, FMRGMYFRMTD [PLA2G6_Y541_K545T_YF] 0.942, NGRQCYSCRGN [PLAUR_Y217_K220R] 1.8, DKGTLYIVEQI [PLBD1_Y375] 0.707, DKGTLYIAEQI [PLBD1_Y375_V377A] 0.793, SLIERYEPSET [PLCD1_Y258] 0.629, SLIEHYEPSET [PLCD1_Y258_R257H] 0.476, SGDITYGQFAQ [PLCG1_Y210] 0.614

Target: SHP2 N-SH2 domain wild-type
Assay: as above
Settings: peptide library: pTyr-Var

Enrichment score, inactive:
HSDYQYSQRSQ [PKP2_Y168] 0.917, HSDYQYGQRSQ [PKP2_Y168_S169G] 0.379, HSDFQYGQRSQ [PKP2_Y168_S169G_YF] 0.612, HSDFQYSQRSQ [PKP2_Y168_YF] 0.623, LVPPRYARSEI [PKP2_Y194] 0.666, LVPPRYVRSEI [PKP2_Y194_A195V] 0.566, ELPEKYSQNIC [PKP2_Y626_Y631C] 0.721, CNLDTYQKRLR [PLA2G2D_Y126_R121C] 0.544, QGCGIYKDYYR [PLA2G2D_Y82_S80G] 1.57, QGCSIYKDFFR [PLA2G2D_Y82_YF] 1.26, YMRGMYFRMTD [PLA2G6_Y541_K545T] 2.22, FMRGMYFRMTD [PLA2G6_Y541_K545T_YF] 0.911, NGRQCYSCRGN [PLAUR_Y217_K220R] 1.71, DKGTLYIVEQI [PLBD1_Y375] 1.05, DKGTLYIAEQI [PLBD1_Y375_V377A] 1.14, SLIERYEPSET [PLCD1_Y258] 0.703, SLIEHYEPSET [PLCD1_Y258_R257H] 0.711, SGDITYGQFAQ [PLCG1_Y210] 0.646
